Assay results: PubChem BioAssay AID686979 (National Center for Advancing Translational Sciences (NCATS), 2013)
Screen size: about 420,000 compounds; about 50,000 (12%) were called active. This list was built around the results that the source calls inconclusive (neither active nor inactive); the mix of calls is not that of the screen. The call rests on the fitted dose curve; in most records, active means well fitted inhibition curve with a large enough effect; inconclusive means small, poorly fitted or top-dose-only effect; inactive means flat fitted curve, though single readings scatter. No potency is given beside an inconclusive call; the fits are too rough.

Test: qHTS for Inhibitors of human tyrosyl-DNA phosphodiesterase 1 (TDP1): qHTS in cells in presence of CPT; further: nearly all actives have a fitted effect of over 55% in size
Conditions: chicken DT40 Tdp1-/-;hTDP1 cells + 20 nM CPT, ATP luminescence, 48 h; series mostly up to 46.2 µM
In short: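 Cell growth measured by CellTiter-Glo luminescence after a minimum 48 h, 37 C compound exposure with 20 nM CPT in Tdp1-knockout DT40 cells stably expressing hTDP1, seeded 400/well; qHTS titration format.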
Potency means the concentration at half of the fitted maximal effect; tags describe the fitted curve by direction and shape.

SMILES | Potency
O=C(CN1C(=O)NC(c2ccccc2)(c2ccccc2)C1=O)N1CCN(c2ccc(F)cc2)CC1 | inconclusive [inhibitor, single point]
O=C(O)COc1ccc2c(-c3ccccc3)cc(=O)oc2c1 | inactive
Clc1ccccc1-c1nnc2sc(C3COc4ccccc4O3)nn12 (configuration not stated) | inconclusive [inhibitor, single point]
CCCCC(=O)NC(c1ccc(N(C)C)cc1)c1ccc2cccnc2c1O (configuration not stated) | active: 1.03 µM
CN(C)c1ccc(/C=N/n2ncc3ccccc32)cc1 | inactive
C/C=C/c1ccc(OCCOc2cccc3cccnc23)c(OC)c1 | inconclusive [inhibitor, single point]
CCC(C)(C)n1nnnc1C(c1cccs1)N1CCN(c2nc3ccccc3s2)CC1 (configuration not stated) | inconclusive [inhibitor, single point]
CN(C)c1ccc(C(=S)N2CCOCC2)cc1 | inactive
COc1cccc2[nH]c(C(=O)NCc3ccc4c(c3)CCN4C(=O)c3ccc(F)cc3)cc12 | inconclusive [inhibitor, single point]
Cc1ccc2c(C)c(C(=O)NCCc3ccco3)oc2c1C | inactive
O=C(CSc1cn(CCNC(=O)c2c(F)cccc2F)c2ccccc12)Nc1ccccc1F | inconclusive [inhibitor, single point]
O=C1CC2(CCCC2)CC(=O)N1CCCCN1CCN(c2ncccn2)CC1 | inactive
N#CC(=Cc1ccc(-c2ccccc2)cc1)C(=O)c1ccccc1 | inconclusive [inhibitor, single point]
CC(=O)Nc1ccc(C(=O)OCCc2ccccc2)cc1 | inactive
Fc1ccc(C2CC(c3ccco3)=Nc3ccccc3S2)cc1 (configuration not stated) | inconclusive [inhibitor, single point]
COc1cc(/C=N/NC(=O)c2cc(-c3ccc4c(c3)OCO4)n[nH]2)ccc1O | inconclusive [inhibitor, single point]
Cn1c(O)c(N=Nc2ccccc2[N+](=O)[O-])c2ccccc21 | inactive
CC(C)OCCCn1c(=O)c2ccccc2n2c(-c3ccccc3F)nnc12 | inactive
Cc1oc2ccc(O)c(CN3CCCC(C)C3)c2c1C(=O)Nc1ccccc1 (configuration not stated) | active: 10.3 µM
O=C(CN1CCCc2ccccc21)N1CCc2ccccc21 | active: 16.4 µM
Cc1c(NC(=O)CN2c3cccc4cccc(c34)S2(=O)=O)c(=O)n(-c2ccccc2)n1C | inactive
Cc1cccc(N2CCN(C(=O)CN3C(=O)NC(C)(C4CC4)C3=O)CC2)c1C (configuration not stated) | inconclusive [inhibitor, single point]
